Test results from PubChem BioAssay AID588549 (Broad Institute, 2011).
Out of some 360,000 compounds screened, about 780 (0.22%) were called active. Inconclusive results, whose numbers are uncertain, are shown with a selection of clear calls. Rule as the data show it: active = inhibition above about 8.5% (passing the limit was not always enough); inconclusive = no clear call, values can overlap the other calls.

What follows are compounds tested on Mycobacterium tuberculosis FadD28 fatty-acid-AMP ligase (assay: inhibitors of FadD28 bisubstrate probe binding, primary screen, biochemical, fluorescence polarization, single point (AID 588549)). Conditions: at 12.5 µM, stronger effect = higher value.

Row | Structure (SMILES) | inhibition
1 | Cc1cc[n+](CC(=O)c2cc3ccccc3oc2=O)cc1 | inconclusive: 7.73%
2 | COc1cccc(-c2ncc3ccccc3c2CO)c1 | inconclusive: 4.68%
3 | CC(=O)Nc1cccc(/C(C)=N/NC(=O)c2c(-c3ccccc3Cl)noc2C)c1 | inactive: -2.25%
4 | COc1ccc(/C(N)=N/OC(=O)c2c(-c3ccccc3Cl)noc2C)cc1OC | inconclusive: -1.38%
5 | Cc1ccccc1C(=O)OCCN(C)Cc1ccccc1 | inconclusive: 6.27%
6 | S=C(NCc1ccccc1)Nc1ccncc1 | inactive: -1.83%
7 | CC(=O)Nc1ccc(S(=O)(=O)Nc2nc3ccccc3nc2Nc2cccc(O)c2)cc1 | inconclusive: 7.31%
8 | c1ccc(-c2ccc3c(c2)NCCN3)cc1 | inactive: -4.8%
9 | O=C(O)c1ccc(N/N=C/C2=Cc3ccccc3OC2)cc1 | inconclusive: 7.11%
10 | Cc1c(NC(=O)c2ccc(-c3cccc([N+](=O)[O-])c3)o2)c(=O)n(-c2ccccc2)n1C | inactive: -3.71%
11 | CCN(CC)c1ccc(/C=N/NC(=O)c2ccc3nc[nH]c3c2)c(O)c1 | active: 27.4%
12 | O=C(O)c1cc(NN=C2c3ccccc3-c3ccccc32)ccc1Cl | active: 14.8%
13 | Cc1cccc(-n2c(O)c(C=NCCCN3CCOCC3)c3ccccc3c2=O)c1 | inconclusive: 3.74%
14 | Cc1ccccc1NC(=O)CN1C(=O)N/C(=C\c2cccn2-c2cccc(C(=O)O)c2)C1=O | inconclusive: 6.52%
15 | CC1=C(C(=O)OCc2ccccc2)C(c2ccccc2Cl)NC(=O)N1C (stereo not drawn) | inconclusive: 4.54%
16 | N#Cc1c(NC(=O)c2ccccc2Cl)n(Cc2ccccc2)c2nc3ccccc3nc12 | inactive: -3.19%
17 | CCCCCCSC1=C(C#N)C(=O)NC2(CCCCC2)S1 | inconclusive: 7.06%
18 | COc1ccc(NC(=O)c2cc(S(=O)(=O)N3CCCCC3)ccc2C)cc1S(=O)(=O)N1CCOCC1 | inactive: -2.92%
19 | COc1ccc(-c2csc3nc(C(C)(C)C)oc(=O)c23)cc1OC | inactive: 0.955%
20 | Cn1c(=O)c2c(ncn2CC(=O)N/N=C/c2ccc(Br)s2)n(C)c1=O | inconclusive: 5.14%
21 | Nc1cc(-c2nc3ncccc3o2)ccc1Cl | inactive: -0.49%
22 | O=C(O)c1c(C(=O)O)c(-c2ccc(Br)cc2)n2c1CSC2 | active: 12.6%

Row | Structure (SMILES) | inhibition
23 | COc1cccc(OCc2cc(C(=O)N(C)CCOc3ccc(C)cc3)no2)c1 | inconclusive: 9.43%
24 | COc1[nH]c(/N=C/c2ccccc2)c(C#N)c1C#N | active: 27.6%
25 | O=C(CN1C(=O)NC2(CCOc3ccccc32)C1=O)c1ccc(Cl)cc1 (stereo not drawn) | active: 16.3%
26 | COc1ccccc1-n1c(C)c(C(=O)O)c2cc(OC)c3ccccc3c21 | inconclusive: 6.91%
27 | CCCCCCCCCCCCCCCC(O)C[N+](C)(C)CCO (stereo not drawn) | active: 34.8%
28 | COc1ccc(N2C(=O)/C(=C/c3ccco3)C(=O)NC2=S)cc1 | active: 32.5%
29 | CN1C(=O)C2C=CC1C1C(=O)N(c3ccccc3)C(=O)C21 (stereo not drawn) | inconclusive: 5.79%
30 | CC(C)NCC(=O)Nc1c2c(nc3ccccc13)CCC2 | inconclusive: 9.87%
31 | O=C(N/N=C\c1cc(Cl)ccc1O)c1ccc(S(=O)(=O)N2CCCCC2)cc1 | inactive: 0.938%
32 | COc1cc(/C=C2/C(=O)NN(c3ccc(F)cc3)C2=O)cc([N+](=O)[O-])c1O | inconclusive: 7.69%
33 | O=C(O)c1cc(S(=O)(=O)N2CCCCC2)ccc1N1CCCCC1 | inactive: -1.55%
34 | O=C(O)Cn1c2ccccc2c2n[nH]c(=S)nc21 | inconclusive: 3.83%
35 | N#CC1=C(SCc2ccccc2)NC(=O)C(C#N)C12CCCC2 (stereo not drawn) | inconclusive: 7.59%
36 | Cc1ccc(S(=O)c2ccc([N+](=O)[O-])c3nonc23)cc1 (stereo not drawn) | inconclusive: 9.9%
37 | O=C(NCC(c1cccs1)N1CCOCC1)c1cc2ccccc2oc1=O (stereo not drawn) | inconclusive: 8.67%
38 | CCCCCCC(N)CC(=O)O (stereo not drawn) | inactive: -0.339%
39 | NC(Cc1ccc(C(F)(F)F)cc1)c1csc(NC(=O)Nc2ccccc2Cl)n1 (stereo not drawn) | inconclusive: 1.75%
40 | CCN(CC)c1ccc(NC(=O)Nc2ccc(C(C)=O)cc2)cc1 | inconclusive: 9.51%
41 | Cc1ccc(C2=NN(S(=O)(=O)c3ccccc3)C(c3ccccc3O)C2)cc1 (stereo not drawn) | inconclusive: 23.3%
42 | O=C(COC(=O)c1cccc(S(=O)(=O)N2CCCC2)c1)Nc1cccc(Br)c1 | inconclusive: 14.5%
43 | O=C(c1ccc(=O)[nH]n1)N1CCN(S(=O)(=O)c2cccc(F)c2)CC1 | inconclusive: 8.24%
44 | O=C(Nc1ccccc1F)NC1CCCCCCC1 | inconclusive: 7.67%

Row | Structure (SMILES) | inhibition
45 | COc1ccc(C(=O)CCC(=O)NCCc2ccccc2F)cc1 | inactive: -1.09%
46 | O=S(=O)(Cc1ccccc1)Nc1ccccc1 | inactive: -3.91%
47 | CNc1nc2c(C)cccn2c(=O)c1C=NCc1ccccc1 | inactive: -2.14%
48 | Cc1cc(-c2cc(C(=O)O)c3ccccc3n2)c(C)s1 | inactive: -10.2%
49 | O=C(CCCN1C(=O)/C(=C/c2ccco2)SC1=S)Nc1cccc(C(=O)O)c1 | active: 17.9%
50 | c1ccc(C2=Nc3c(ccc4ccccc34)C(c3ccncc3)=NN2)cc1 | inactive: -2.07%
51 | O=C(COC(=O)c1ccccc1NCCO)Nc1cc(C(F)(F)F)ccc1N1CCOCC1 | inactive: -0.343%
52 | O=C(Nc1sc2c(c1C(=O)O)CCCCC2)c1ccccc1F | inconclusive: 7.9%
53 | CC(=O)Nc1ccc(OC(F)(F)C(F)F)c(NC(C)=O)c1 | inconclusive: 9.42%
54 | CC(O)(c1cccnc1)c1nc(-c2cccc(C(F)(F)F)c2)cs1 (stereo not drawn) | inconclusive: 29.1%
55 | CCCCCCNC(=O)c1c(O)c2cccc3c2n(c1=O)CCC3 | inactive: 0.146%
56 | O=C(NCc1ccccc1Cl)c1ccc(CSc2nc3ccncc3[nH]2)cc1 | inactive: -3.83%
57 | NS(=O)(=O)c1ccc(N=Nc2c[nH]c(=O)c(O)c2)cc1 | inconclusive: 7.41%
58 | Cc1c(N=Cc2c(O)n(CCc3ccc(F)cc3)c(=O)[nH]c2=O)c(=O)n(-c2ccccc2)n1C | inconclusive: 16.3%
59 | CC1(C(=O)NS(=O)(=O)c2ccccc2Cl)CCN1C(=O)Cc1ccc(Cl)cc1Cl (stereo not drawn) | inactive: -1.16%
60 | COC(=O)c1cc(C(=O)OCC(=O)NC2CCCC2)cc([N+](=O)[O-])c1 | inconclusive: 74.4%
61 | CCCOc1ccc(NC2=CC(=O)CC(C)(C)C2)cc1 | inactive: -0.286%
62 | COc1cc(/C=C2/C(=O)NN(c3cccc(C)c3)C2=O)cc([N+](=O)[O-])c1O | inconclusive: 8.43%
63 | O=C1NC(=S)SC1=Cc1ccc(N(CCCl)CCCl)cc1 | active: 13.6%
64 | O=C(COC(=O)c1cccc(O)c1)Nc1nnc(-c2ccccc2)o1 | inactive: -3.43%
65 | Cc1cc(C)c(S(=O)(=O)N2CCC(C(=O)NCc3ccncc3)CC2)c(C)c1 | inactive: -7.15%
66 | Cc1ccc(-n2ncc3c(=O)[nH]c(SCC(=O)N4CC(=O)Nc5ccccc54)nc32)cc1 | inconclusive: 5.19%

Row | Structure (SMILES) | inhibition
67 | O=C(N/N=C/c1c[nH]c2ccccc12)c1cc(Br)ccc1O | active: 29.3%
68 | CCN(CC)CC(C)(C)C(=O)/C=C/c1ccc(/C=C/C(=O)C(C)(C)CN(CC)CC)cc1 | inactive: -2.26%
69 | CCC1=NN2C(=N)/C(=C\c3ccc(SCc4ccco4)o3)C(=O)N=C2S1 | active: 11.1%
70 | Nc1ccc2c(c1)[nH]c(=O)c1cc(N)ccc12 | inconclusive: 8.78%
71 | O=C(N/N=C/c1c(O)n(-c2ccc(Cl)cn2)c(=O)c2ccccc12)c1ccncc1 | inconclusive: 8.27%
72 | Cc1ccc(NC(=O)CN2C(=O)S/C(=C/c3ccc(O)c([N+](=O)[O-])c3)C2=O)cc1C | active: 31.1%
73 | Cc1cc(C)cc(N(C(=O)C(F)(F)F)C(C(=O)NC2CCCCC2)c2cccs2)c1 (stereo not drawn) | inconclusive: 12.8%
74 | c1ccc2c(c1)CCN(CCCNc1nc3ccccc3n3cnnc13)C2 | inactive: -3.73%
75 | O=C(O)COc1ccccc1-c1nc(-c2ccccc2)c(-c2ccccc2)[nH]1 | inconclusive: 7.74%
76 | CCc1c(C)sc(NC(=O)C2CC2c2ccccc2)c1C(N)=O (stereo not drawn) | inconclusive: 6.04%
77 | CCOc1ccc(NC(=O)C2C(C(=O)O)C3(Cl)C(Cl)=C(Cl)C2(Cl)C3(Cl)Cl)cc1 (stereo not drawn) | active: 21.4%
78 | O=C(CNC(=O)c1ccc([N+](=O)[O-])cc1)N/N=C/c1c[nH]c2ccccc12 | inconclusive: 9.1%
79 | CCOc1ccc(-n2c(=S)sc3c(=O)[nH]c(SCC(=O)N4CCC(C)CC4)nc32)cc1 | inconclusive: 7.36%
80 | O=C(O)c1ccc(N/N=C/c2ccc(-c3ccccc3Cl)o2)cc1 | inconclusive: 8.51%
81 | COc1ccc(OC)c(CCNC(=O)c2ccc3c(=O)[nH]c4c(C(=O)NC(C)C)sc(=S)n4c3c2)c1 | inconclusive: 8.71%
82 | CCN(CC)c1nc2n(c(=O)n1)CCO2 | inconclusive: 4.76%
83 | O=C(c1cccc(S(=O)(=O)N2CCN(c3ccccc3)CC2)c1)N1CCCCCCC1 | inconclusive: 20.7%
84 | Cc1ccc(C)c(C(O)c2ncc(-c3ccccc3F)[nH]2)c1 (stereo not drawn) | inconclusive: 7.53%
85 | CCCCCCCCCCCCCCCC(=O)Nc1ccn(C2OC(CO)C(O)C2O)c(=O)n1 (stereo not drawn) | inconclusive: 12.6%
86 | Cc1cc(-n2c(C)cc(C(=O)COc3ccc(F)c(F)c3)c2C)no1 | inconclusive: 5.87%
87 | Cc1ccc(SCc2c(C(=O)N/N=C/c3ccoc3)nnn2-c2nonc2N)cc1 | inconclusive: 8.7%
88 | Cc1ccc(S(=O)(=O)c2nc(S(C)(=O)=O)sc2N2CCCCCC2)cc1 | inactive: -1.56%
